For 59 molecules, TGI and GI50 results are on record in PubChem BioAssay (NCI).

Structures are written as SMILES. Values joined by “and” are separate entries in the source; they are usually repeats but may differ in a detail not shown here. Equal entries are not always repeated.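 Results reflect a 48-hour exposure of cells in 96-well plates to compound at five concentrations. Here, GI50 denotes the concentration required for 50% inhibition of growth. The concentration for full growth arrest is given as TGI.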

The subject of this assay is NCI-H322M lung. As to the kind of experiment: inhibition of tumour cell growth, NCI panel, 48 h.
Consider `COC(=O)C1Cc2ccc3c(c2C1=O)CCCC3` (configuration not stated), for which the TGI is over 100 µM.

Take `CC(C(N)C(=O)NC(C(=O)O)C1OC(n2ccc(=O)[nH]c2=O)C(O)C1O)C(O)c1ccc(O)cn1` (configuration not stated): the TGI is over 100 µM.

Regarding `COc1ccc(NC(C)=O)c(C(O)CCNC(C)=O)c1` (configuration not stated), the TGI is over 100 µM.

`O=c1[nH]nc(-c2ccccc2)n1/N=C/c1ccccc1Cl` registered a TGI of over 100 µM.

As for `CCC(=O)Nc1ccc(C)c(-c2ccc(C(=O)NCC3CC3)cc2)c1`, the GI50 is over 25 µM and the TGI is over 25 µM.

Regarding `Oc1c(Br)cc(/C=C/c2cccc(/C=C/c3cc(Br)c(O)c(Br)c3)n2)cc1Br`, the TGI worked out at 26.8 µM.

`Cc1cc2c(C(N)=O)c(N)n(-c3c(C)ccc(O)c3C)c2nc1C`: the GI50 is 9.26 µM and the TGI is 96.6 µM.

As for `CCOC(=O)C1=C(C)N(Cc2ccc(Cl)cc2Cl)C2(O)C=CC(=O)C3=C(O)c4ccccc4C(=O)C312` (configuration not stated), the GI50 was 3.91 µM and the TGI came to 17.1 µM.

`CCCCCCCCCC(=O)OCC1OC(n2cc(F)c(=O)[nH]c2=O)C(NC(=O)OCc2ccccc2)C(OC(=O)CCCCCCCCC)C1O` (configuration not stated) yielded a TGI of over 100 µM.

Molecule `Nc1n[n+](-c2ccccc2)no1` registered a TGI of over 100 µM.

For the molecule `O=C1/C(=C/c2ccc(Cl)cc2)CCC/C1=C\c1ccc(Cl)cc1`, the GI50 is over 100 µM and the TGI was over 100 µM.

With `CCN(CC)c1ccc(/C=C/C(=O)c2cc(C(C)(C)C)c(O)c(C(C)(C)C)c2)cc1`, the TGI was over 100 µM.

Take `COc1cc(C(=O)CC2OC(=O)C(Cl)=C2Cl)ccc1Cl` (configuration not stated): the TGI was over 100 µM.

With `Cc1cc(N2CCOCC2)nc(N(CCCNc2ccnc3cc(Cl)ccc23)Cc2ccco2)n1`, the GI50 is 2.66 µM and the TGI turned out to be 12.5 µM.

Turning to `CC1(C)NCCC[C@]2(C)[C@H]3CC[C@@H]4[C@H]5[C@H](C(=O)/C=C/c6ccccn6)CC[C@]5(CO)CC[C@@]4(C)[C@]3(C)CC[C@@H]12`, the GI50 is 3.37 µM and the TGI was found to be 14.9 µM.

`Cn1c2ccccc2c(=O)c2cccc(C(=O)NCC(=O)O)c21` displayed a TGI of over 100 µM.

With `CC(C)Oc1cccc(N2C(=NCCc3c[nH]c4ccccc34)Nc3ccncc3S2(=O)=O)c1`, the TGI was over 100 µM.

Regarding `C=C(CO)[C@@H]1CC[C@]2(COC3CCCCO3)CC[C@]3(C)[C@H](CC[C@@H]4[C@@]5(C)C=C(C=O)C(=O)C(C)(C)[C@@H]5CC[C@]43C)[C@@H]12` (some centres not stated), the GI50 was 1.1 µM and the TGI turned out to be 2.38 µM.

As to `C[N+](C)(C)c1cc2c(nn1)Nc1ccccc1S2`, the TGI came out at 50.7 µM.

Turning to `CCn1c(-c2nonc2N)nc2c(C#CC(C)(C)O)ncc(OC[C@H]3CCCNC3)c21`, the GI50 was 19.2 µM and the TGI was found to be 66.1 µM.

In the case of `C#CCN(N=O)C(=O)NCCCCC(NC(C)=O)C(=O)NCc1ccccc1` (configuration not stated), the TGI is over 100 µM.

Take `CC(CN(C)C)Oc1ccccc1NC1=C(Cl)C(=O)C(Nc2ccccc2OC(C)CN(C)C)=C(Cl)C1=O` (configuration not stated): the GI50 is 1.76 µM and the TGI was found to be 3.86 µM.

`COc1ccc(N=NC(=Nc2ccc(Cl)cc2)c2ccc(N(CCC#N)CCC#N)cc2)cc1` showed a TGI of over 100 µM.

As to `C/C(=N\NC(=S)SCc1ccccc1)c1ccccn1`, the TGI stood at 10.3 µM.

`CC(C)=CCC/C(C)=C\CCC1(C)OC(=O)C2CC21` (configuration not stated) displayed a TGI of over 100 µM.

Turning to `O/N=C1/CC2(N3CCOCC3)C3CC/C(=N\O)C2CC1(Cc1ccccc1)C3` (configuration not stated), the TGI is over 100 µM.

The molecule `CCOc1ccccc1-c1nc2c(s1)C(=O)c1ccccc1C2=O` gave a TGI of 29.3 µM.

In turn, `CSc1nc(C)c(CCOC(C)=O)c(Cl)n1` showed a TGI of over 100 µM.

For `NC(=O)SCCC(N)C(=O)O` (configuration not stated), the TGI was over 100 µM.

Consider `CC(NC(=O)c1ccc(NP(=O)(OCc2ccc([N+](=O)[O-])o2)N(C)CCCCCl)cc1)c1ccc(OCC2CCCCC2)c(C(N)=O)c1` (configuration not stated), for which the TGI amounted to 59.8 µM.

Molecule `COc1nc2c(c(=O)n1C)N=C(c1ccccc1)[C@H](C(CC(=O)c1ccccc1)c1ccccc1)C(c1ccccc1)N2` (some centres not stated) registered a TGI of over 100 µM.

Consider `O=C1c2ccccc2-c2c1c1c(O)cccc1n2Cc1ccccn1`, for which the GI50 was 56.2 µM and the TGI was over 100 µM.

Molecule `CC1=C(O)/C(=C/C(C)CCC/C(C)=C/C=C/C(C)CCCc2ccoc2)OC1=O` (configuration not stated) gave a TGI of 74.6 µM.

Molecule `O=C(CCn1[nH]c(=O)c(Cl)c(Cl)c1=O)NNC(=O)C[n+]1ccccc1` returned a TGI of over 100 µM.

The molecule `CC(=O)O[C@@]1(C)[C@@H](C)C(=O)O[C@@H]2CCN3CC=C(COC(=O)[C@]1(C)O)[C@H]23` yielded a TGI of over 100 µM.

The molecule `CC(=O)c1ccc2c(c1)CC1(C2)Cc2ccc3c(c2C1=O)CCC3` (configuration not stated) showed a TGI of over 100 µM.

Regarding `O=C1OC(=O)C2CCCC3CCCC1C32` (configuration not stated), the TGI is over 100 µM.

`COc1cc2c(cc1O)C1(Cc3ccc4c(c3C1=O)OCO4)N(C)CC2` (configuration not stated) had a TGI of over 100 µM.

In the case of `COC(=O)C12OCC34C(CC5C(C)C6=CC(=O)OC6=CC5(C)C3C(O)C1O)OC(=O)C(O)C24` (configuration not stated), the GI50 is 0.778 µM and the TGI is over 42.9 µM.

For the molecule `[N-]=[N+]=NCCCn1c2c(c3ccc([N+](=O)[O-])cc3c1=O)C(=O)c1cc(F)ccc1-2`, the GI50 is 7.37 µM and the TGI was over 30.1 µM.

For `O=C1C2C(C(=O)N1c1ccccc1)C1([N+](=O)[O-])C=C3c4ccccc4N(C(=O)c4ccccc4)C32C2C(=O)N(c3ccccc3)C(=O)C21` (configuration not stated), the TGI is over 100 µM.

For `COc1cc2c(cc1OC)CC1c3cc(OC)c(OC)cc3CCN1CC2` (configuration not stated), the TGI was over 100 µM.

Molecule `CN(C)c1nncc2n[nH]nc12` showed a TGI of over 100 µM.

`Cc1ccc(OCC2OC(n3cnc4c(Cl)nc(Cl)nc43)CC2Oc2ccc(C)cc2)cc1` (configuration not stated) had a TGI of 11 µM.

On to `NS(=O)(=O)c1ccc(N(/C=C/C(=O)C(F)(F)F)Cc2ccc(Cl)cc2)cc1`, for which the GI50 is 19 µM and the TGI was found to be 58.7 µM.

Consider `Cc1ccnc2[nH]c(-c3ccc(F)cc3)cc(=O)c12`, for which the TGI is over 100 µM.

As for `OC(c1ccc2c(c1)OCO2)c1ccc2c(c1)OCO2`, the TGI is over 100 µM.

For the molecule `O=C(O)c1c(=O)cccc2ssc12`, the GI50 is 2.49 µM and the TGI stood at 7.53 µM.

In turn, `C[N+](C)(C)CC(=O)N/N=C(\C(=O)NC1=C(Cl)C(=O)c2ccccc2C1=O)C(C#N)c1nc(-c2ccc([N+](=O)[O-])cc2)cs1` (configuration not stated) registered a TGI of 28.2 µM.

As to `C=CCN1/C(=C2\SC(=S)N(c3ccc(C)cc3)C2=O)Sc2c1nc[nH]c2=O`, the TGI was over 100 µM.

Take `COc1cc2nccc(Oc3ccc(NC(=O)Nc4cc(C)on4)c(Cl)c3)c2cc1OC`: the GI50 was 4.58 µM and 9.17 µM; the TGI is 99.8 µM and > 10 µM.

`CC1=C(/C=C/C(C)=C/C=C/C(C)=C/C(=O)O)C(C)(C)CCC1` had a TGI of over 100 µM.

Molecule `O=C1NC(N2CCCCC2)=N/C1=C\c1ccc(Cl)cc1` gave a TGI of over 100 µM.

As for `CN(C)CCNc1c2ccccc2nc2oc3ccccc3c12`, the GI50 was 11 µM and the TGI stood at 72.7 µM.

`Oc1cc(N2CCCC2)ccc1/C=N/N1C(=S)N(c2ccccc2)C(=Nc2ccccc2)C1=Nc1ccccc1` gave a TGI of over 100 µM.

In the case of `CC1=C(C(=O)Nc2cc(Cl)c3[nH]ncc3c2)C(c2ccc(C(F)(F)F)cc2)CC(=O)N1` (configuration not stated), the GI50 is over 25 µM and the TGI was over 25 µM.

For the molecule `C=C1CC2CC(O)CC(C1)C2` (configuration not stated), the TGI is over 100 µM.

On to `O=NNc1ccc(Sc2ccc(NN=O)cn2)nc1`, for which the TGI was over 100 µM.

As to `N#Cc1c(N)nc(N2CCOCC2)c(C#N)c1-c1ccccn1`, the GI50 was over 100 µM and the TGI was over 100 µM.
